In PubChem BioAssay AID1240 (Sanford-Burnham Center for Chemical Genomics, 2008) one finds displacement data, which are given here for 67 compounds.

The campaign covered roughly 50,000 compounds. About 800 (1.6%) showed an effect of 50% or more. The list shows a part of the results.

This assay deals with Bcl-2-like protein 10 (Homo sapiens) (UniProt Q9HD36). Nature of the assay: TR3 peptide-Bcl-B binding displacers, biochemical primary FP assay, phenotype converters (AID 1240).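 Also: 0% = Bcl-B with tracer peptide and DMSO and 100% = tracer peptide lacking Bcl-B.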 To be noted: GST-Bcl-B / FITC-TR3 peptide fluorescence polarization; stronger effect = higher value; compound at 3.75 mg/L.
Sequence of UniProt Q9HD36 (Q9HD36 whole entry, looked up): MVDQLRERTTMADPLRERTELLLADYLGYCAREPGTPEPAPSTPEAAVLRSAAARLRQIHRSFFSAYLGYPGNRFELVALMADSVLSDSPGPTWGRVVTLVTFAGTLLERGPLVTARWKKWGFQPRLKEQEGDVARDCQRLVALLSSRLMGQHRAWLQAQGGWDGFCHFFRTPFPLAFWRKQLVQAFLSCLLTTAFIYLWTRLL
As for `COc1ccc(Nc2nc(-c3ccc(C)cc3)c(C)s2)cc1`, the displacement was -9.4%.
Regarding `COc1ccc(N=C2SC(C(=O)N3CCN(c4ccc([N+](=O)[O-])cc4)CC3)CC(=O)N2C)cc1` (configuration not stated), the displacement is -12%.
Take `COc1ccc2oc3ccc(OC)cc3c(=O)c2c1`: the displacement was -4.2%.
Regarding `Oc1ccccc1/C=N/n1c(-c2ccccc2)n[nH]c1=S`, the displacement was -12.4%.
In the case of `C=CC(=O)NC(NC(=O)C=C)c1ccc(OC)c(OC)c1`, the displacement is -5.5%.
Take `Cc1ccc(-c2cc(C(=O)N3CCCCC3)c3ccccc3n2)s1`: the displacement is -11%.
To `CCN(CC)c1ccc(/C=C(\C#N)C(=O)Nc2ccc(OC)cc2)c(OC)c1` belongs -6.6%.
For the compound `Cc1c(C(=O)NCCCC(=O)O)c(-c2ccccc2)nn1-c1ccccc1`, the displacement is 17.9%.
`CCOC(=O)C1=C(O)/C(=C/c2ccccc2Cl)SC1=Nc1ccccc1`: the displacement came out at 19.1%.
Regarding `COc1ccc(/C=C/c2cc(C(F)(F)F)[nH]c(=O)n2)cc1`, the displacement turned out to be 12.4%.
With `CN(C)c1ccc(C(O)(c2ccccc2)c2ccccc2)cc1`, the displacement was -21.3%.
Regarding `CC1=NN(c2ccc(S(N)(=O)=O)cc2)C(=O)/C1=C\c1ccc2c(c1)OCO2`, the displacement was -13.4%.
To `COc1ccc(OC)c(N(CC(=O)N2CCN(c3ccccc3)CC2)S(=O)(=O)c2ccccc2)c1` belongs -15.2%.
In the case of `CCOC(=O)c1c(Cl)cc(Cl)c(N)c1[N+](=O)[O-]`, the displacement was -9.9%.
Next, `O=C(c1cc(Br)ccc1Cl)N1CCN(c2ccc([N+](=O)[O-])cc2)CC1`: 9.6%; `COc1ccc(-c2csc(-c3nc(-c4ccc(OC)c(OC)c4)cs3)n2)cc1OC`: -6.7%.
As to `O=C1NC(=S)N(c2cccc(Br)c2)C(=O)/C1=C/c1ccccc1O`, the displacement is 6.5%.
With `CC(N=C(NS(=O)(=O)c1ccc(Cl)cc1)c1ccccc1)C(=O)O` (configuration not stated), the displacement worked out at 9.6%.
Turning to `COc1cc(NC(=O)c2cccc(OCc3ccccc3)c2)ccc1NC(=O)c1ccco1`, the displacement was 2.8%.
Regarding `O=C1N=c2ccc(Br)cc2=C1c1sc(=S)n(NC(=O)c2ccccc2Cl)c1O`, the displacement is -3.2%.
For the compound `CC1(C)CC(=O)C=C(Nc2cc([N+](=O)[O-])ccc2N)C1`, the displacement is -6.8%.
Regarding `O=C(NN1C(=O)/C(=C\c2ccccc2Cl)SC1=S)c1ccc(Br)cc1`, the displacement is 6.9%.
Turning to `Cc1ccccc1NC(=O)C(=O)NCCc1ccc(Cl)cc1`, the displacement came to 16.2%.
To `O=C1N=c2ccccc2=C1c1sc(N2CCCCC2)nc1O` belongs 8.1%; to `CCOC(=O)c1ccc(NC(=O)CCCN2C(=O)/C(=C/c3ccc(OC)cc3)SC2=S)cc1`, -3.5%; to `CC(=O)Nc1ccccc1NC(=O)COc1ccc(C)cc1C`, -0.3%.
Take `CCOC(=O)C1=C(C)N=c2s/c(=C\c3ccc(OC)cc3)c(=O)n2C1c1ccc(OC)cc1` (configuration not stated): the displacement was -5.7%.
With `CC(=O)C1=C(O)C(=O)N(CC2CCCO2)C1c1ccc(C)cc1` (configuration not stated), the displacement is -0.8%.
As for `Cc1cccc(OCCNc2cc(Cl)ccc2[N+](=O)[O-])c1`, the displacement is 11.6%.
Regarding `CCOC(=O)C1=C(C)N=c2s/c(=C\c3ccc([N+](=O)[O-])o3)c(=O)n2C1c1ccc(OCC)cc1` (configuration not stated), the displacement was determined as 14.7%.
Regarding `O=C(COc1ccc(Br)cc1)Nc1cccnc1`, the displacement was 2.3%.
Regarding `c1ccc(CNCC2COc3ccccc3O2)cc1` (configuration not stated), the displacement was determined as 7.1%.
To `C=COCCNC(=O)C(=O)Nc1ccccc1C` belongs 4.4%; to `Cc1ccc(OCC(=O)Nc2cc(C(=O)O)cc(C(=O)O)c2)cc1C`, 11.6%.
To `Cc1cccc(/C=C2\C(=O)NC(=O)N(c3cc(C)cc(C)c3)C2=O)c1` belongs 6.2%; to `Cc1cccc(C)c1NC(=O)c1ccc(CN(c2ccccc2)S(C)(=O)=O)cc1`, 5.2%.
For `CCOC(=O)CCC(NC(=O)c1ccc(Cl)cc1)C(=O)OCC` (configuration not stated), the displacement was determined as 3.1%.
With `O=C1C(Cl)=C(NC(=O)c2ccccc2)C(=O)C(Cl)=C1NC(=O)c1ccccc1`, the displacement is 0.6%.
To `COc1ccccc1N1CCN(C(=O)c2cccc(I)c2)CC1` belongs -10.3%; to `CCOc1c(/C=C(\C#N)C(N)=O)c2ccccc2n1CC`, -4.8%; to `CCOC(=O)C1=C(C)NC(=O)NC1c1ccc(N(C)C)cc1` (configuration not stated), -11.8%.
Consider `CCOc1ccc(NC(=O)c2cccc(-c3ccc(OC(C)=O)cc3)c2)cc1`, for which the displacement is 8%.
To `O=C(NCc1ccco1)C1C2C3CCC(C3)C12` (configuration not stated) belongs -3.2%.
For `CC(=O)C(C(C)=O)C(c1ccc(C)o1)c1ccc(C)o1`, the displacement was -3.7%.
Regarding `O=c1oc2cc(O)ccc2cc1-c1csc(-c2ccc(-c3ccccc3)cc2)n1`, the displacement was 116%.
Next, `Cc1cc(=O)[nH]c(SCc2ccc([N+](=O)[O-])cc2)n1`: -7.4%; `Cc1ccc(S(=O)(=O)Nc2ccccc2-c2ccccc2)cc1[N+](=O)[O-]`: -2.7%; `Cc1cc(/C=C2/NC(=S)NC2=O)c(-c2ccccc2)n1-c1ccccc1`: -14.7%.
On to `O=C(c1cccc(C#Cc2ccccc2)c1)N1CCN(c2ccccc2F)CC1`, for which the displacement is -5.8%.
As to `Oc1ccc2cc(Br)ccc2c1C=Nc1ccc(Br)cn1`, the displacement is 8.7%.
For the compound `COCc1cc(CN(C)C2CCCCC2)c(O)c2ncccc12`, the displacement is 2.3%.
Turning to `C/C(=N/N1CCN(Cc2ccccc2Cl)CC1)c1cccc([N+](=O)[O-])c1`, the displacement is -11.5%.
In the case of `CCOC(=O)CCCC[C@H]1SC[C@@H](NC(=O)OC)[C@H]1NC(=O)OC`, the displacement came out at 0%.
For the compound `COc1ccc(C(=O)Nc2ccc(C(=O)O)cc2)cc1`, the displacement stood at 5.1%.
As for `COC(=O)c1ccc(NC(=O)CC2Sc3ccccc3NC2=O)cc1` (configuration not stated), the displacement turned out to be 3.1%.
`COc1cc(N2CCN(Cc3ccccc3)CC2)c([N+](=O)[O-])nc1[N+](=O)[O-]`: the displacement stood at 19.4%.
As to `CC(N/C=C1/CC(=O)NC1=O)c1ccccc1` (configuration not stated), the displacement turned out to be 7.1%.
Take `COc1ccc(N2C(=O)NC(=O)/C(=C\c3cc(I)c(OC)c(OC)c3)C2=O)cc1`: the displacement was -5.6%.
Consider `O=[N+]([O-])c1ccccc1S(=O)(=O)NCCc1ccccc1`, for which the displacement was -13.3%.
On to `O=C(Nc1ccc([N+](=O)[O-])cn1)c1cccnc1`, for which the displacement was determined as 12%.
On to `COC(=O)c1ccc(/C=C2\SC(N3CCOCC3)=NC2=O)cc1`, for which the displacement is -13.4%.
Consider `Cc1ccc(/C=C/C(=O)Nc2ccc(F)c([N+](=O)[O-])c2)cc1`, for which the displacement came to 9.4%.
Take `COc1ccc(/C=N/Nc2nc(C(F)(F)F)c(-c3ccc(F)cc3)s2)cc1OC`: the displacement stood at 2.7%.
Next, `O=C(CCNc1n[nH]c(=O)[nH]c1=O)N/N=C/c1ccc(Cl)cc1`: -12.4%; `COc1ccc(NC(=O)c2c(NC(=O)C(Cl)(Cl)Cl)sc3c2CCC3)cc1`: 16.4%; `COc1ccc(-c2cc(C(=O)Nc3ccc([N+](=O)[O-])cc3)c3ccccc3n2)cc1`: 14.9%.
For `COc1ccc(C2CC(c3c(-c4ccccc4)c4cc(Br)ccc4[nH]c3=O)=NN2C(=O)CCC(=O)O)cc1` (configuration not stated), the displacement turned out to be 13.8%.
